Measured values from PubChem BioAssay AID1159614 (National Center for Advancing Translational Sciences (NCATS), 2016).
Among all 45,000 compounds or so, about 65 (0.1%) were called active. Calls come from the whole dose curve; as a rule, active = well fitted activation curve with a large enough effect; inconclusive = small, poorly fitted or top-dose-only effect; inactive = no such curve, though single readings can be large or run the other way. The list shows a part of the results.

biological target: Galactocerebrosidase (Homo sapiens) (UniProt P54803); experiment: A Novel Cell-Based Assay to Identify Small Molecules for B -Galactocerebrosidase; settings: 145M-Twi-hGALC-G270D cells (Twitcher mouse brain line with human GALC G270D), HMU-beta-Gal fluorescence, 48 h; series mostly up to 57.5 µM; activation: at the top concentration; note: 0% is about no effect; nearly all actives have a fitted effect of over 65% in size
Chain of UniProt P54803 (P54803 whole entry, looked up): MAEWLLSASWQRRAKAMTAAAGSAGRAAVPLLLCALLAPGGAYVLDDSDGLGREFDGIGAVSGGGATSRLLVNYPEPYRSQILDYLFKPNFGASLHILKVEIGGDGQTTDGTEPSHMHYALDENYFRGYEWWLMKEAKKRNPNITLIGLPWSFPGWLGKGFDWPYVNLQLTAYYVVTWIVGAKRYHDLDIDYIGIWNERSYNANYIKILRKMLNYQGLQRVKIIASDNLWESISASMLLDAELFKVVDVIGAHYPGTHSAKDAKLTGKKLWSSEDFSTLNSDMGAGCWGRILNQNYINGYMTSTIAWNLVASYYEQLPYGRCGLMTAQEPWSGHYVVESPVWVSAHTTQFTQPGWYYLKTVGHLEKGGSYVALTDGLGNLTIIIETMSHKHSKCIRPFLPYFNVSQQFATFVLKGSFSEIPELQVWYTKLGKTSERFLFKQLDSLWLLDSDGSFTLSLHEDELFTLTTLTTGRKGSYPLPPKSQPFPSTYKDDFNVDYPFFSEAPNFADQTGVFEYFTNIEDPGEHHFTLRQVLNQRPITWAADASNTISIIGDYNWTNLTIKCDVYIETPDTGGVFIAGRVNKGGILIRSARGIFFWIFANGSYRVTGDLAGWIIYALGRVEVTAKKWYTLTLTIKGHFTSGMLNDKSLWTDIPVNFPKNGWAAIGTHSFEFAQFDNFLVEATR
In short: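 Brain-derived Twitcher mouse 145M-Twi cells stably expressing human GALC-G270D or wild-type GALC, treated live, then residual GALC activity read by fluorescence of HMU-b-Gal substrate (0.1 mM final) in citrate-phosphate buffer pH 5.2 with sodium taurocholate. Signal increase indicates enhancement.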

activation, inactive:
CCC(C(=O)Nc1ccc(C(C)C)cc1)n1nc(C)n2c(cc3cc(C)ccc32)c1=O (configuration not stated) -5.15%
CCCCNC(=O)CSc1nnc(C)c2c(C)n(-c3ccccc3)nc12 -14.9%
CC1CCN(S(=O)(=O)c2ccc3c(c2)CCC(=O)N3CC(=O)Nc2cccc(C#N)c2)CC1 -14.8%
Cc1ccc(Cn2c(C)c(CNCCCc3ccccc3)c(C(=O)O)c2C)cc1 -18.4%
O=C(NCc1ccccc1)c1ccc(CSc2nc3cccnc3n2Cc2ccccc2F)cc1 -6.84%
Cc1ccc(-c2cc3c(n2-c2ccc(C)cc2)CC(C)(C)CC3=O)cc1 -16.3%
CCC1CN(C(=O)N2CCC(C(=O)NCc3ccccc3C)CC2)c2ccccc2O1 (configuration not stated) -1.06%
Cc1ccc(-c2noc(CNC(=O)c3ccccc3)n2)cc1 -15.4%
CC(C)NC(=O)C1CCN(c2nc3ccccc3nc2C(F)(F)F)CC1 -12.7%
Cc1ccc(C2=NN(CC(=O)NCCN(CC(C)C)CC(C)C)C(=O)CC2)cc1 -6.17%
COc1ccc(OCC(=O)Nc2cccc(-c3nc4ccccc4s3)c2C)cc1 -16.2%
O=C(NCCOCCn1c(=O)oc2ccccc21)Nc1ccc(F)cc1 -20.7%
Cc1ccc(NC(=O)C2CCN(S(=O)(=O)c3c(C)noc3/C=C/c3ccco3)CC2)cc1C -16.9%
CC(C)N(Cc1ccccc1)C(=O)CCS(=O)(=O)c1ccc2c(c1)oc(=O)n2C -11%
Cc1cc2c(cc1S(=O)(=O)N(CCN(C)C)Cc1ccco1)OCC(=O)N2 2.11%
Cc1ccc(S(=O)(=O)c2cn(C)c3cc(N4CCCC(C)C4)c(F)cc3c2=O)c(C)c1 (configuration not stated) -15.3%
Cc1nc(N2CCCC2)ncc1C(=O)Nc1ccc(F)cc1F -2.54%
COc1ccccc1OCC(=O)Nc1nc(-c2ccc(Br)cc2)ns1 -1.02%
Cc1ccc(-n2ncc3c(N4CCC(Cc5ccccc5)CC4)ncnc32)cc1 -6.31%
CC(=O)O[C@@H]1CC2C3CCc4cc(OC(=O)c5ccccc5)ccc4C3CCC2(C)[C@H]1OC(C)=O (some centres not stated) -11.8%
Cc1c(Cl)cccc1NC(=O)Cn1cnc2nc3c(cc2c1=O)CCCC3 -27.2%
CC(C)(C)CC(=O)NC1CC(=O)N(c2ccc3c(c2)OCCO3)C1 (configuration not stated) -12.7%
O=C(c1ccc2c(c1)N(Cc1ccccc1F)C(=O)c1ccccc1S2=O)N1CCOCC1 (configuration not stated) -5.83%
Cc1ccc(CN2CCc3nc(N4CCN(C)CC4)ncc3C2)s1 -11.9%
COc1ccc2c(c1)c1c(c(=O)n(-c3ccccc3)c(=O)n1CC(=O)Nc1ccc(C)c(C)c1)n2C -11.1%
CN(Cc1ccccc1)S(=O)(=O)c1nnc(NC(=O)c2ccccc2)s1 -17.6%
Cc1cccc(N(C)C(=O)CSc2nc3ncccc3o2)c1 -19.1%
Cc1ccc2c(c1)cc1c(=O)n(CC(=O)N3CCCCC3)nc(C)n12 -20.9%
CCc1ccc(C(=O)c2cn(CC(=O)Nc3ccc(C)c(C)c3)c3ccccc3c2=O)cc1 12.7%
O=C(NCC1CCCO1)c1c[nH]c2ccc(S(=O)(=O)Nc3cccc(C(F)(F)F)c3)cc2c1=O (configuration not stated) -12.5%
N#Cc1ccc(CSc2nc3c(c(=O)[nH]2)CCCC3)cc1 -8.01%
Cc1cccc(N(C)C(=O)CCNS(=O)(=O)c2ccc3c(c2)CCN3C(=O)C2CC2)c1 -44%
COc1cc(C(CC(=O)NCCC(C)C)N2Cc3ccccc3C2=O)cc(OC)c1OC (configuration not stated) -19.1%
COc1cc(NC(=O)CN2CCN(CC(=O)Nc3ccc(F)cc3)CC2)cc(OC)c1 -1.42%
O=C(Nc1c(C(=O)Nc2ccccc2F)oc2ccccc12)c1cc2ccccc2o1 -9.02%
Cn1ncc2c(Nc3cccc(F)c3)ncnc21 2.99%
COC(=O)CCn1cnc2onc(-c3cc(F)cc(F)c3)c2c1=O -12.7%
Cc1ccc(C)c(CS(=O)(=O)c2cn(CC(=O)N(C(C)C)C(C)C)c3ccccc23)c1 -11.8%
CC(C)Sc1ncc(Cl)c(C(=O)Nc2ccc(S(=O)(=O)N(C)c3ccccc3)cc2)n1 -17.6%
Fc1ccc2ncc3c(-c4ccccc4)n[nH]c3c2c1 -10.9%
COc1ccc(C2CNC(=O)C2)cc1OC1CCCC1 (configuration not stated) -26.9%
COc1ccc(/C=C/C(=O)Nc2sc3c(c2C(N)=O)CCC(C)C3)cc1OC (configuration not stated) 3.36%
Cc1ccc2c(c1)N(C(=O)N1CCC(C(=O)NC3CCCCCC3)CC1)CC(C)O2 (configuration not stated) -18.9%
COc1cc(NC(=O)Cc2c(C(=O)O)c(C)cn2C)cc(OC)c1 -10.5%
CNC(=O)c1c[nH]c2ccc(S(=O)(=O)Nc3cccc(Cl)c3C)cc2c1=O -0.578%
CCc1cccc(NC(=O)CSc2ncccc2C(=O)Oc2ccccc2Cl)c1 -25%
COc1ccc(CNC(=O)CCC(=O)N2CC3CCCN3c3ccccc32)c(OC)c1 (configuration not stated) -8.71%
Cc1cc(C)cc(OCc2ccc(C(=O)Nc3ccccc3F)o2)c1 -21.7%
CCOC(=O)c1c(NC(=O)c2cc(C)on2)sc(C)c1C -22.2%
CCOc1ccc(NC(=O)CCS(=O)(=O)c2cccc3nonc23)cc1 -21.5%
Cc1ccc(-n2ncc3c(N4CCN(C)CC4)ncnc32)cc1Cl -14.6%
Cc1cc(C)c2c(=O)cc(C(=O)Nc3sc4c(c3C(=O)NCc3cccnc3)CCCC4)oc2c1 -6.94%
CC(=O)c1cccc(NC(=O)c2ccc(-n3c(C)nnc3C)cc2)c1 -12.6%
COC(=O)c1cc(S(=O)(=O)NCC2CCN(Cc3ccc(C)cc3)CC2)c[nH]1 -3.42%
CCOc1ccc(-n2c(SCC(=O)Nc3ccc(F)cc3)nc3c([nH]c4ccccc43)c2=O)cc1 -11.3%
CCC(Sc1nc2nccnc2c(=O)n1Cc1ccc(OC)cc1)C(=O)NC1CCCCC1 (configuration not stated) -0.179%
CC(C)C12CN3CC(C(C)C)(CN(C1)C3c1ccc(OCc3ccccc3)cc1)C2=O (configuration not stated) -28.3%
CCOc1ccccc1CNC(=O)c1ccc2c(c1)sc1nc(-c3cccc(OC)c3)cn12 -35.6%
CC(C)n1c(SCC(=O)Nc2ccc(F)cc2)nc2c(oc3ccccc32)c1=O -9.08%
Cc1cc(NC(=O)COc2ccccc2)cc(-c2nc3ccccc3o2)c1O -1.67%
CC(C)(C)OC(=O)N1CCC(c2nnc(SCc3ccccc3)o2)CC1 2.47%
COc1ccc(-c2noc(-c3ccc(N4CCCCC4C)c([N+](=O)[O-])c3)n2)cc1OC (configuration not stated) -24.6%
COc1ccccc1CNC(=O)c1ccc(N2Cc3cccc(OC)c3Oc3ncccc32)s1 -19.9%
CCCn1c(-c2cccc(Br)c2)nc2ccccc21 -13.7%
CCCN1C(=O)C(Cc2nc3ccccc3c(=O)n2-c2cccc(C)c2)c2ccccc21 (configuration not stated) -4.28%
Cn1ncc(C(=O)N2CCN(c3ccc(F)cc3)CC2)c1C1CCN(C(=O)OC(C)(C)C)CC1 7.75%
CCn1c(-c2ccc(S(=O)(=O)N3CCOCC3)cc2)csc1=Nc1ccc(C)c(Cl)c1 -24%
O=C(CSc1nnc2[nH]c(=O)cc(-c3ccccc3)n12)Nc1ccc(F)cc1F -18.8%
Cc1ccc(C2=CC(c3c(F)cccc3Cl)n3ncnc3N2)cc1C (configuration not stated) -10.1%
CC(=O)Nc1cc(-c2nc3ccccc3s2)ccc1C -4.13%
Cc1cc(C)cc(NC(=O)C2CCCN2S(=O)(=O)c2cccc3nsnc23)c1 (configuration not stated) -8.39%
Cc1cccc(-c2noc(-c3ccc(N4CCN(C)CC4)c([N+](=O)[O-])c3)n2)c1 -7.3%
COc1ccc(CNc2nc3c(c(=O)n(C)c(=O)n3C)n2Cc2ccccc2Cl)cc1 -6.96%
Cc1ccc(C)c(CN2CCC(CNC(=O)c3cc4ccc5cccnc5c4[nH]3)CC2)c1 -18.6%
COc1ccc(C)cc1NC(=O)c1ccc2c(c1)CCN2S(=O)(=O)c1ccc(Cl)cc1 -10.2%
Cc1ccc(C(=O)n2nc(C)c(S(=O)(=O)N3CCCCCC3)c2C)cc1 4.19%
CCOC(=O)c1ccc(CN(Cc2ccccc2C)S(=O)(=O)c2ccc(C(C)(C)C)cc2)cc1 -18.1%
COc1cccc(C2C(C(=O)Nc3ccccc3)=C(C)Nc3nc(-c4ccccc4)nn32)c1OC (configuration not stated) -0.6%
CN(C(=O)CCS(=O)(=O)c1cc2c(cc1Cl)NC(=O)CO2)C1CCCCC1 -3.07%
COc1cc(OC)c(OC)cc1CNc1sc2c(c1C(=O)Nc1ccccc1OC)CCC2 -18.9%
O=C(Nc1ccc2nc(SCC(=O)N3CCc4ccccc43)sc2c1)c1cccc(Cl)c1 -0.318%
Cc1ccc(CCNC(=O)CCS(=O)(=O)c2cc3c(cc2C)NC(=O)CO3)cc1 -24.7%
Cc1nncn1-c1ccc(C(=O)Nc2cc(F)ccc2F)cc1 -21.4%
CCN(CC)c1ccc(NC(=O)c2sc3nc4c(cc3c2N)CN(C)CC4)cc1 -21.9%
CCn1c(C(=O)N2CCCC(C(=O)N3CCN(c4cc(C)ccc4C)CC3)C2)cc2sccc21 (configuration not stated) -42.2%
Cc1ccccc1CCNC(=O)c1cc2cc(S(=O)(=O)N3CCCCC3)ccc2n1C 4.66%
COc1ccc(-n2c(=O)c3ccccc3n(CC(=O)NCCc3ccc(OC)c(OC)c3)c2=O)cc1 -10.4%
COc1cc2c(cc1OC)C(COc1cc(C)cc(C)c1)N(C(=O)COc1ccccc1)CC2 (configuration not stated) -24.3%
COc1ccc(Cl)cc1NC(=O)CCCN1C(=O)C(c2ccccc2)Oc2cccnc21 (configuration not stated) -7.44%
COc1ccc(NC(=O)c2cc3c(=O)n(Cc4cccnc4)ccc3nc2C)cc1OC -11.8%
COc1ccc(NC(=O)CSc2nc3nc(C)c(Cc4ccccc4Cl)c(C)n3n2)cc1OC -7.02%
COc1ccc(C)cc1NS(=O)(=O)c1cc2c3c(c1)CC(=O)N3CCC2 -8.54%
CCn1c(=N)c(C(=O)NC2CCCCC2)cc2c(=O)n3cc(C)ccc3nc21 5.23%
Cc1ccc(C2=Nc3ccccc3N(CC(=O)NCc3ccccc3Cl)C(=O)C2)cc1C -11.3%
COc1ccc(N2Cc3cccc(C(=O)Nc4ccc(F)cc4)c3C2=O)cc1 -19.3%
COc1ccc(-n2ncc(C(=O)Nc3cccc(C(F)(F)F)c3)c2C2CCN(C(=O)OC(C)(C)C)CC2)cc1 -3.12%
CCOCCCN(Cc1ccco1)S(=O)(=O)c1cc2c(cc1C)NC(=O)CO2 -15.1%
